The campaign covered roughly 320,000 compounds. About 200 (0.062%) were called active. Inconclusive results, whose numbers are uncertain, are shown with a selection of clear calls. Calls come from the whole dose curve; as a rule, active = well fitted activation curve with a large enough effect; inconclusive = small, poorly fitted or top-dose-only effect; inactive = no such curve, though single readings can be large or run the other way. Potencies of inconclusive entries are left out as doubtful fits.
Assay: qHTS assay for re-activators of p53 using a Luc reporter; note: nearly all actives have a fitted effect of over 45% in size; for activity change, positive = activation: % of control where 0% means no effect
Conditions: H1299 p53-A138V BP100-luciferase reporter, luminescence, 24 h; series mostly up to 92.2 µM; activity change, positive = activation: at the top concentration
How it was run: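 p53-null H1299 cells stably carrying temperature-sensitive p53-A138V and a BP100-luciferase reporter were pinned with compounds (4-point, 1:5 series) and held 24 hrs at 37 deg C. Luminescence was read 10 min after detection reagent.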
Potency is the fitted concentration of half-maximal effect; tags give direction and shape of the fitted curve.

Row | Compound | activity change, positive = activation | Potency
1 | CCOc1ccccc1C(=O)NC(CO)C(=O)O (centres undefined) | inactive: -0.345% | –
2 | Cc1cc(C)c2c(N)c3cccc(C)c3nc2n1 | – | inconclusive [activator, full curve, poor fit]
3 | CCN1CCN(c2cc3c(nn2)Oc2ccccc2N3C)CC1 | – | inconclusive [activator, partial curve, poor fit]
4 | O=[N+]([O-])c1ccccc1NCCOc1ccccc1 | – | inconclusive [activator, full curve, poor fit]
5 | CN(C)c1ccc(/C=N/NC(=O)c2ccccn2)cc1 | inactive: -3.13% | –
6 | O=C(Cc1ccccc1)NCC1CCCO1 (centres undefined) | inactive: 1.27% | –
7 | O=c1oc2c(O)cccc2cc1-c1nc2ccccc2[nH]1 | – | inconclusive [activator, full curve, poor fit]
8 | O=C(C[n+]1ccccc1)Nc1ccccc1C(F)(F)F | – | inconclusive [activator, single point]
9 | Cc1ccccc1C(=O)Nc1cccc(-c2ccc(N3CCOCC3)nn2)c1 | inactive: 9.79% | –
10 | CCOC(=O)c1c(C)c(C(=O)Nc2ccc3c(c2)OCCO3)c(C)n1C | – | inconclusive [activator, single point]
11 | CCCCS(=O)(=O)c1sc2nc(C)cc(C)c2c1N | – | inconclusive [activator, partial curve, poor fit]
12 | C/C(Cl)=C\Cn1c(O)c(N=NC(N)=S)c2cc(Br)ccc21 | inactive: -5.4% | –
13 | COc1ccc(C(CNC(=O)c2cccc(NS(=O)(=O)c3ccccc3)c2)N(C)C)cc1 (centres undefined) | – | inconclusive [activator, partial curve, poor fit]
14 | CC(=O)c1sc(N/N=C\c2ccc(C)cc2)nc1C | – | inconclusive [activator, partial curve, poor fit]
15 | COc1ccc(C(=O)N/C(=C\c2cn(S(=O)(=O)N(C)C)c3ccccc23)C(=O)N2CCOCC2)cc1 | inactive: -5.43% | –
16 | Cc1nc(-c2cc(-c3ccc(Cl)cc3)no2)cs1 | – | inconclusive [activator, full curve, poor fit]
17 | CCNC(=O)CC1C(=O)N(c2ccc(F)cc2)C(=O)N1Cc1ccc(OC)cc1 (centres undefined) | – | inconclusive [activator, partial curve, poor fit]
18 | C/C(=C\C(=O)c1cccnc1)Nc1ccc(O)cc1 | – | inconclusive [activator, partial curve, poor fit]
19 | COC(=O)Nc1ccc2c(c1)ncn2C1CCCCC1 | – | inconclusive [activator, single point]
20 | COc1ccc(C(=O)NCCc2nnc3ccc(SCC(=O)NCc4ccc(F)cc4)nn23)cc1 | inactive: -5.33% | –
21 | FC(F)(F)c1ccc(N/N=C/c2cccnc2)nc1 | – | inconclusive [activator, full curve, poor fit]
22 | CCN(CC)C(=O)CSc1nc(C)cc(-c2cccs2)c1C#N | inactive: 10.9% | –
23 | CCCC1=[N+](CC(=O)c2ccc(C)cc2)CCn2cccc21 | – | inconclusive [activator, partial curve, poor fit]

Row | Compound | activity change, positive = activation | Potency
24 | Cc1ccc(S(=O)(=O)NCCC(=O)N2CCN(Cc3ccccc3)CC2)cc1 | – | inconclusive [activator, full curve, poor fit]
25 | O=C(C[C@@H]1C/C=C\C[C@@H](NC(=O)OCC2c3ccccc3-c3ccccc32)C(=O)OCCNC1=O)N[C@@H](CO)Cc1ccccc1 | inactive: 5.75% | –
26 | C/C(=N\Nc1ccccn1)c1ccc(C(C)C)cc1 | inactive: 16.7% | –
27 | CN(C)c1ccc(/C=C/C(=O)c2ccc3c(c2)OCO3)cc1 | – | inconclusive [activator, partial curve, poor fit]
28 | Cc1ccc(S(=O)(=O)NCc2nc(-c3ccccc3)no2)cc1 | inactive: -3.12% | –
29 | Cc1ccc(C)c(OCC(=O)Nc2cc(NC(=O)COc3cc(C)ccc3C)cc(C(=O)O)c2)c1 | – | inconclusive [activator, single point]
30 | O=c1nc2n(Cc3ccccc3)c3ccccc3cc-2c(=O)[nH]1 | inactive: -9.96% | –
31 | O=C(COc1ccccc1)n1nc(-c2ccc(Cl)cc2)nc1NCc1ccco1 | – | inconclusive [activator, partial curve, poor fit]
32 | O=C(Nc1nnc(-c2ccco2)o1)c1ccc2ccccc2c1 | – | inconclusive [activator, single point]
33 | CC(c1ccccn1)N(Cc1ccco1)C(=S)Nc1cccc(F)c1 (centres undefined) | inactive: 11.5% | –
34 | O=C1C(c2cc(=O)c3ccccc3[nH]2)=C(O)c2ccccc21 | – | inconclusive [activator, partial curve, poor fit]
35 | N/C(=N\c1nc2ccccc2o1)NC(=O)c1ccccc1Br | inactive: 4.75% | –
36 | O=C(Nc1ccc2c(c1)oc1ccccc12)N1CCOCC1 | – | inconclusive [activator, partial curve, poor fit]
37 | N/C(=N\OC(=O)COc1ccccc1)c1ccc(Cl)cc1 | – | inconclusive [activator, partial curve, poor fit]
38 | Cc1ccc(NC(=O)CNS(=O)(=O)c2cccs2)cc1F | – | inconclusive [activator, full curve, poor fit]
39 | Cc1ccccc1NC(=O)c1cn2c(nc3ccccc32)c(C#N)c1C | – | inconclusive [activator, single point]
40 | CCOC(=O)c1cnc2c(-c3ccccc3)cnn2c1C | inactive: 5.98% | –
41 | COc1cccc(OCc2cc(C(=O)NCc3ccc4c(c3)OCO4)no2)c1 | – | inconclusive [activator, partial curve, poor fit]
42 | Cc1ccc(NC(=O)c2sc(N)nc2C)cc1 | – | inconclusive [activator, full curve, poor fit]
43 | CN1CCC(Oc2ccc(Sc3ccccc3)cc2)CC1 | – | inconclusive [activator, partial curve, poor fit]
44 | CN(C)c1ccc(N=Nc2ccccc2C(=O)OCC(=O)N2CCCC2)cc1 | – | inconclusive [activator, partial curve, poor fit]
45 | O=C(COC(=O)c1cccc(-n2cnnn2)c1)c1ccc(F)cc1 | inactive: 14.4% | –
46 | COC(=O)c1ccc(C(=O)OC)c(NC(=O)Nc2ccc3c(c2)OCO3)c1 | – | inconclusive [activator, partial curve, poor fit]

Row | Compound | activity change, positive = activation | Potency
47 | O=C(CSc1nc2ccccc2s1)NCC1CCCO1 (centres undefined) | – | inconclusive [activator, partial curve, poor fit]
48 | N#Cc1ccccc1NC(=O)c1ccc2c(Cl)c3c(nc2c1)CCCC3 | – | inconclusive [activator, partial curve, poor fit]
49 | O=C(CN1CCCCC1)Nc1nc(-c2ccccc2)cs1 | – | inconclusive [activator, full curve, poor fit]
50 | CCS(=O)(=O)Nc1c(C(=O)OC)[nH]c2ccccc12 | inactive: 3.18% | –
51 | O=C(N/N=C/c1cc(Cl)ccc1O)c1cccnc1 | – | inconclusive [activator, partial curve, poor fit]
52 | Cc1ccc(C(=O)Nc2cc(C(C)C)c(O)c(C(C)C)c2)cc1 | – | inconclusive [activator, single point]
53 | COc1ccccc1Oc1ccc(-c2cnc3ccccc3n2)cc1[N+](=O)[O-] | – | inconclusive [activator, full curve, poor fit]
54 | O=C(NCCN1CCOCC1)c1noc2c1CCc1ccccc1-2 | – | inconclusive [activator, full curve, poor fit]
55 | O=C(NCCc1ccccc1)c1cnc2n(c1=O)CCS2 | – | inconclusive [activator, partial curve, poor fit]
56 | O=C(OCc1nnc(-c2ccccc2)o1)c1cc(S(=O)(=O)N2CCOCC2)c(Cl)cc1Cl | inactive: 9.18% | –
57 | O=C(COc1ccccc1F)NC1CC1 | – | inconclusive [activator, single point]
58 | Cc1cc2oc(C(=O)Nc3nonc3C)c(C)c2cc1C | – | inconclusive [activator, partial curve, poor fit]
59 | Cc1ccc(C(C(=O)NC(C)(C)C)N(Cc2ccco2)C(=O)Cn2nnc(-c3cccs3)n2)cc1 (centres undefined) | inactive: -8.56% | –
60 | O=C(CN1C(=O)S/C(=C\c2ccc(Cl)cc2)C1=O)NNC(=O)c1ccccc1O | inactive: 1.16% | –
61 | O=C1c2ccsc2SCCN1Cc1c(Cl)cccc1Cl | inactive: -12.6% | –
62 | Cc1cc(=O)[nH]c(N/N=C/c2ccccn2)n1 | – | inconclusive [activator, full curve, poor fit]
63 | Cc1ccccc1-c1nc(CN2CCC(C(=O)NCCCN3CCCC3)CC2)c(C)o1 | – | inconclusive [activator, partial curve, poor fit]
64 | C/C(=N\NC(=S)NCc1ccccc1)c1ccccc1 | – | inconclusive [activator, partial curve, poor fit]
65 | O=C(NCCN1CCN(c2ccccc2Cl)CC1)Nc1ccccc1 | – | inconclusive [activator, single point]
66 | O=C(NC(=S)Nc1cccc([N+](=O)[O-])c1)C1CCCCC1 | – | inconclusive [activator, partial curve, poor fit]
67 | CCN(CC(=O)Nc1c(C(=O)OC)[nH]c2ccc(C)cc12)c1ccc2c(c1)OCO2 | inactive: -0.973% | –
68 | CCOC(=O)c1c(-c2ccc(C)o2)csc1NC(=O)CSc1nncs1 | inactive: 4.74% | –
69 | COc1ccc(C2C(C#N)=C(N)N3C(=C2C#N)Sc2ccccc23)cc1 (centres undefined) | – | inconclusive [activator, partial curve, poor fit]

Reference: PubChem BioAssay AID504706 (National Center for Advancing Translational Sciences (NCATS), 2011)
